B1: chr19:13097725:13097826:+|3pUTR|ENSG00000008441|msi1|total|mutant (ssRNA)
RNA: GGGAGUUCUACAGUCCGACGAUCUGAGCCAGACGCCAACUUGACCCUCACCAGCAUUAUCAGGAGCGCGCUCAGCAAGUUGGCCGUUUCCUCCCCCCUUUCCCGGCGCCCCUCCCGCCCCCAUUCAACAUCUCUCAUCCUAUCCAACAGAGGAUUGAGCAUCA
B2: chr10:68442948:68443070:-|CDS|ENSG00000138346|unk|FALSE|unique (ssRNA)
RNA: GGGAGUUCUACAGUCCGACGAUCCCCAAUUGUGAUGCUGCCCAAAAUAGAAGAAGAAACCCAGCAUCUGAAGCAAACACACUUAGAAUAUUUCAGCCUUUGGUGUCUAAUGUUAACCCUGGAGUCACAAUCGAAGGAUAAUAACAACAGAGGAUUGAGCAUCA
B3: chr3:52836218:52836623:-|three_prime_utr|ENSG00000213533|control|control|control (ssRNA)
RNA: GGGAGUUCUACAGUCCGACGAUCAGCAACUGCCCAGUGAAAAGCCAAACAUGCUCUUGCCAUGUCCAUCUCCACUUCUUCGCUAGUGAGAAUUAAAGCAAGUCCGUCUCUGAGGAGGACAUCGUGUUGGGGAGGUAGAGUAUACAACAGAGGAUUGAGCAUCA
B4: chr1:225491636:225491737:-|3pUTR|ENSG00000154380|msi1|total|mutant (ssRNA)
RNA: GGGAGUUCUACAGUCCGACGAUCGUACUUUGAAUUCCACCGGAAAAAGCACUCAGAAGAAAAAGUCUACAUUGGCCCGUGUUCCGAUUGAGAGUUAAUUUUCCCAUCAAGUCCAAAAGUUUCCAUCCAAGUCUACCGAAACUGCAACAGAGGAUUGAGCAUCA
B5: chr7:44624349:44624495:+|CDS|ENSG00000105953|unk|total|mutant (ssRNA)
RNA: GGGAGUUCUACAGUCCGACGAUCAGGCCAUUGACGGCUUCCCAGACUGUUAAGACAUUUUCACAAAACAGACCAGCAGCAGCCCGGACAUUUCAACAGAUUCGGUGCUAUUCUGCACCUGUUGCUGCUGAGCCCUUUCUCAGUCAACAGAGGAUUGAGCAUCA
B6: chr1:24840999:24841100:+|3pUTR|ENSG00000169504|msi1|total|mutant (ssRNA)
RNA: GGGAGUUCUACAGUCCGACGAUCGCUACUCCUUCCUGCCGAGCAGAAAUUGUAUUUUGCACGAACAUGCAGUUAUUGAAGAUCCGGAUCAAGGACCGACAAGGUACCGCCGUUAUCUUAAAAUAUACACUCCUAAGCAGUAUUCAACAGAGGAUUGAGCAUCA
B7: chr1:10178627:10178729:+|CDS|ENSG00000130939|unk|FALSE|unique (ssRNA)
RNA: GGGAGUUCUACAGUCCGACGAUCUAAGGAAUUGUUUGAAGAAGUUAUUUCAAAGAUGCGGAAGGCAGGGAUCAAAUCCACAAUAGCAAUAGAAAAAUUUAAGCUGCUCGCCGAGAAAGUGGAGGAGAUAGUGGCCAAGAACGCCAACAGAGGAUUGAGCAUCA
B8: chr3:10940499:10940600:+|3pUTR|ENSG00000132164|unk|FALSE|unique (ssRNA)
RNA: GGGAGUUCUACAGUCCGACGAUCGGGGAGGGCAAUGUGGGGGCAGGGGAACAUGUCAUUGUGAUGACUUUUUUGAUAUUCAUUAGAAACAAUACAUCCUUUCUGAGAUAUUUACAGUAUUAUUAAAAAAUGAAAAAGGUUGUACAACAGAGGAUUGAGCAUCA
B9: chr1:62648186:62648303:-|CDS|ENSG00000116641|unk|FALSE|unique (ssRNA)
RNA: GGGAGUUCUACAGUCCGACGAUCGAUGACCUUAAAAGACGUUCAAUGUCAAUAGAUGAUACCCCAAGGGGUAGCUGGGCCUGUAGUAUCUUUGACUUGAAAAAUUCACUUCCUGAUGCUUUGCUUCCCAAUUUACUUGAUCGACAACAGAGGAUUGAGCAUCA
B10: ENSG00000164929:stop:overlap|stop_codon|ENSG00000164929|stop_codon|NA|stop_codon (ssRNA)
RNA: GGGAGUUCUACAGUCCGACGAUCUAACAGAUAGCAUCCAACAGAUGGACAGAAGUCGAAGAAUCACAAAGAACUGUGUCAACUAGCAGAGAGUCCAAGCAGAAGGGCAGAUGGACUUCUUCAGUGUCCUUCACGGCACUGGAUCAACAGAGGAUUGAGCAUCA
B11: chr6:105098323:105098438:-|3pUTR|ENSG00000112276|msi1|total|mutant (ssRNA)
RNA: GGGAGUUCUACAGUCCGACGAUCUAUCAGUGUCUCAAUGUGAAGAUUGUAACCUCAAGAUCCGGAAUCUUAAAAGAGCCACUCCGCCUGAAUGGGAAACGUGAGACUAUUUUUAAACACACACCUCUAAGGAAGAAGCCUCCCCAACAGAGGAUUGAGCAUCA
B12: chr3:97755980:97756081:+|3pUTR|ENSG00000080224|unk|FALSE|unique (ssRNA)
RNA: GGGAGUUCUACAGUCCGACGAUCUAAUUAAAAAUCUCUUUCCUACCUUUAGUAAUUUGUAGGAUGAACUGUAUGCAUUUAGAUAGAAAUUGCUUUUGUUAAAUUUACAUUUAAACACAUCUUCAUUCACUUAGAGAAGCCAUACAACAGAGGAUUGAGCAUCA
B13: chr14:75134619:75134720:-|3pUTR|ENSG00000170348|msi1|FALSE|unique (ssRNA)
RNA: GGGAGUUCUACAGUCCGACGAUCAACAAGUCAAUGAGGGACUUCUUUUUAAUUUGGUAGGAUUUUGACUGGUUUUGCAACAAUAGGUCUAUUAUUAGAGUCACCUAUGACAAAAAAUAGGGGUUACCUAGAUAAUGCCAAAGUCAACAGAGGAUUGAGCAUCA
B14: chr8:143915506:143915607:-|3pUTR|ENSG00000178209|msi1|FALSE|unique (ssRNA)
RNA: GGGAGUUCUACAGUCCGACGAUCCCCCACACUCACUCCUGAGACCCCUGGCCUCCGGCGUCAGCCUCCAGCCUCUGUUCCCCUAGUAAGUGCCUUCCAUGUCGGCCUCUAACCCCAGGCCCCGAGGACCCAGACCCAGUGGGGCAACAGAGGAUUGAGCAUCA
B15: chr15:64957256:64957357:+|3pUTR|ENSG00000166839|msi1|total|mutant (ssRNA)
RNA: GGGAGUUCUACAGUCCGACGAUCGCUGGAAAAUUGAAACAUAAUUUCACAAUUAUUCCUUUUUCCACCUUAAAUAAUAAGAGCCGAAUACUUUCUGUGUUUUUAUCUUAUACACAUGAAUAAAUGCUAUGGCUUAUCACAGUUCAACAGAGGAUUGAGCAUCA
B16: chr7:108149816:108149915:-|CDS_3pUTR|ENSG00000091129|msi1_unk|FALSE|overlapping (ssRNA)
RNA: GGGAGUUCUACAGUCCGACGAUCGUCAACGCCAUGAAUUCCUUUGUUUAAUUUUUAAGCUCUUUGCCAAUAUUCCAUUUCUCUAGAAUGUUUAUCCUAAGCACUUGUUUGUCAGCCCUCUCAUACUAUGAACAUAUGGGUAGACAACAGAGGAUUGAGCAUCA
B17: chr3:196828865:196828966:+|3pUTR|ENSG00000180370|msi1|FALSE|bound_elsewhere (ssRNA)
RNA: GGGAGUUCUACAGUCCGACGAUCUGCUCCUUUUGAGUUGCUUUUGCGUUUCUCAUGCCUAGGCAAGUGUAAUAGAAAUUAUGUAGCUCCUUAUGUUGGCAAAGGAGCUCUAUAUAGUUUCACUUUGUAUAAAAGUUAGGACCACAACAGAGGAUUGAGCAUCA
B18: chr4:2179307:2179465:-|CDS|ENSG00000130997|control|control|control (ssRNA)
RNA: GGGAGUUCUACAGUCCGACGAUCCAGAAUUGCUGCAUGGCUUAUAGAUCCUAGUGAUGCCACACCCUCUUUUGAAGAUUUAGUAGAAAAAUACUGUGAAAAAUCCAUUACAGUUAAAGUGAACAGCACAUAUGGAAAUUCCUCCAACAGAGGAUUGAGCAUCA
B19: chr4:73571549:73576234:-|three_prime_utr|ENSG00000169435|control|control|control (ssRNA)
RNA: GGGAGUUCUACAGUCCGACGAUCUUGAUGAAUGCAUAAGUUCUGUACUUGCAUUUAUACGAACAUAUAUGAGACUUGAAUCGUAGAAAAUUGAAUGUCAAAAAAAGCUCAUUUCUUUUUGAAGUGAUGAGGUUAAUUAGGGUUCAACAGAGGAUUGAGCAUCA
B20: chr10:119917856:119917957:+|CDS|ENSG00000107651|unk|FALSE|unique (ssRNA)
RNA: GGGAGUUCUACAGUCCGACGAUCUAAGAAAAUCACUUUGCCAAGUAUUGGUCGAUUUCGUCACUUUACCAAUGAAACUUUGCUAGAUAUUUUAUUUUAUAACAGCCCCACCUACUGUCAGACAAUUGUGGAAAAAGUAGGAAUCAACAGAGGAUUGAGCAUCA
B21: chr20:5938399:5938502:-|3pUTR|ENSG00000089195|unk|total|mutant (ssRNA)
RNA: GGGAGUUCUACAGUCCGACGAUCGUCUGACUCUUAACCCUUUUGAGAAUUGCUCUGAAUUUUGUUCUCAGGCAUUAUACAGUCCGUAAUUAAACUUUAAAUGCCAUUACUACUUGUUUUUUCAUAUCCCAAGAAUAAGAACAUCAACAGAGGAUUGAGCAUCA
B22: chr3:7579146:7579247:+|CDS|ENSG00000196277|unk|total|mutant (ssRNA)
RNA: GGGAGUUCUACAGUCCGACGAUCGCCAGAGGGGUUCUCAAGUGUGACAUUACAGAUCUCCAAAUCAUUUGCUCCUUGGGAUACCGCAUUCUUCUCAUGGUCACAUGUACUGUGUAUGCCAUCAAGACUCGGGGUGUACCCGAGCAACAGAGGAUUGAGCAUCA

The other results are listed elsewhere or left out.

The experiment concerns the target MSI1 full-length (mouse, UniProt Q61474 1-362). The experiment in a line: nsRBNS (natural sequence RNA bind-n-seq); RBNS binding buffer (assumed for nsRBNS): 25 mM Tris pH 7.5, 150 mM KCl, 3 mM MgCl2, 0.01% Triton X-100, 500 ug/ml BSA, 20 U/ml SUPERase-In, 4 C; UNK is unkempt and MSI1 is Musashi-1; names of the RNAs are library labels; protein concentration not given here; high values mean tight binding.
Chain of UniProt Q61474 (Q61474 whole entry): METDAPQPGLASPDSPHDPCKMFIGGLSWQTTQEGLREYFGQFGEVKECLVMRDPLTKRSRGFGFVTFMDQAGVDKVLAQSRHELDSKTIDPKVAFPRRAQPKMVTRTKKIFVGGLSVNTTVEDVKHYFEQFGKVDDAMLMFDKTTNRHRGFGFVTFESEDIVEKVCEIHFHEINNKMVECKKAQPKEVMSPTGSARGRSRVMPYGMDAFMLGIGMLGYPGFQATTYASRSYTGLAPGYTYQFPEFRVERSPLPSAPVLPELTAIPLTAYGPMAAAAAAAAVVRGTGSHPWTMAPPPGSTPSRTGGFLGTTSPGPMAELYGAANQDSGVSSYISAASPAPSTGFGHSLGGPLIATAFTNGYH
Molecule B1 came in with a binding signal of 0.765 enrichment R.

With B2, the binding signal came to 7.91 enrichment R.

In the case of B3, the binding signal worked out at 0.577 enrichment R.

The molecule B4 gave a binding signal of 0.375 enrichment R.

On to B5, for which the binding signal came to 0.283 enrichment R.

B6 showed a binding signal of 0.487 enrichment R.

On to B7, for which the binding signal was determined as 3.47 enrichment R.

For the molecule B8, the binding signal came out at 2.63 enrichment R.

On to B9, for which the binding signal was found to be 0.378 enrichment R.

Molecule B10 yielded a binding signal of 0.309 enrichment R.

In turn, B11 returned a binding signal of 0.338 enrichment R.

As to B12, the binding signal is 19.4 enrichment R.

The molecule B13 showed a binding signal of 5.04 enrichment R.

Regarding B14, the binding signal came out at 0.558 enrichment R.

B15 had a binding signal of 0.616 enrichment R.

In turn, B16 yielded a binding signal of 2.44 enrichment R.

B17: the binding signal is 0.789 enrichment R.

B18 yielded a binding signal of 5.41 enrichment R.

Turning to B19, the binding signal came to 0.408 enrichment R.

Molecule B20 had a binding signal of 3.39 enrichment R.

For the molecule B21, the binding signal was 1.22 enrichment R.

In the case of B22, the binding signal worked out at 0.324 enrichment R.

These data come from paper PMC12136788.
